{"source": "PubChem BioAssay AID1508623", "about": "(National Center for Advancing Translational Sciences (NCATS), 2021)", "note": "Out of some 48,000 compounds screened, about 450 (0.94%) were called active. Another 19% or so got no clear call; they are omitted. The call rests on the fitted dose curve; in most records, active means well fitted inhibition curve with a large enough effect; inconclusive means small, poorly fitted or top-dose-only effect; inactive means no such curve, though single readings can be large or run the other way. The list shows a part of the results.", "data": [{"assay": "Primary qHTS for Identification of Small Molecule Inhibitors of Huntingtin Promoter Activity; further: nearly all actives have a fitted effect of over 50% in size", "conditions": "HEK293 HTT promoter firefly luciferase reporter (activity 0% = vehicle and -100% = no light), 24 h; series mostly up to 57.5 µM; activity change, negative = inhibition: at the top concentration", "in_short": "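Firefly luciferase readout (Dual-Glo, 10 min RT) after 24 h, 37 °C compound exposure (final up to 57.5 uM) of HEK293 reporter cells cultured 24 h beforehand; PTC124 at 50 uM final as control inhibitor; activity scaled vehicle 0%, zero RLU -100%.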", "values": [{"compound": "Cc1ccc(CNC(=O)C2CCC(CNS(=O)(=O)c3ccc4c(c3)CCCC(=O)N4)CC2)cc1", "note": "(configuration not stated)", "activity change, negative = inhibition": "inactive: -5.73%"}, {"compound": "CCOc1ccc(CNC(=O)c2cc(=O)[nH]c3ccc(S(=O)(=O)N4CCCCC4)cc23)cc1", "activity change, negative = inhibition": "inactive: 7.7%"}, {"compound": "Cc1cc(C)cc(Nc2cc(C(=O)NCCCN(Cc3ccccc3)C(C)C)c3ccccc3n2)c1", "activity change, negative = inhibition": "inactive: -18.5%"}, {"compound": "COc1ccc(CN(C(=O)c2cc3ccccc3oc2=O)C2CCS(=O)(=O)C2)cc1", "note": "(configuration not stated)", "activity change, negative = inhibition": "inactive: 8.42%"}, {"compound": "Cc1cccc(C)c1OCCSc1nc2ccccc2n1CC(=O)O", "activity change, negative = inhibition": "inactive: 6.56%"}, {"compound": "COc1ccc(N2CCN(S(=O)(=O)c3csc(C(N)=O)c3)CC2)cc1", "activity change, negative = inhibition": "inactive: -21.9%"}, {"compound": "CCN(Cc1ccccc1)C(=O)Cn1c(=O)n(-c2ccc(F)c(Cl)c2)c(=O)c2sc3ccccc3c21", "activity change, negative = inhibition": "inactive: -7.86%"}, {"compound": "O=C(Nc1cccc(-c2nc3ccccc3o2)c1)c1cc([N+](=O)[O-])ccc1N1CCOCC1", "activity change, negative = inhibition": "inactive: -28.1%"}, {"compound": "COc1ccc(-c2nc3c4cnn(-c5ccccc5F)c4ncn3n2)cc1", "activity change, negative = inhibition": "inactive: 11%"}, {"compound": "COC(=O)CC1Oc2ccc(F)cc2-n2cc(-c3ccc(Cl)cc3)nc21", "note": "(configuration not stated)", "activity change, negative = inhibition": "inactive: -8.53%"}, {"compound": "CCOC(=O)c1ccc(NC(=O)CCS(=O)(=O)c2ccc(C)cc2)cc1", "activity change, negative = inhibition": "inactive: -25.8%"}, {"compound": "Cc1cccc(-c2nc(CCNC(=O)c3ccco3)cs2)c1", "activity change, negative = inhibition": "inactive: -19%"}, {"compound": "Cc1ccc(-n2nc(C)c3c(C(=O)NCc4ccc(F)cc4)cc(C)nc32)cc1", "activity change, negative = inhibition": "inactive: -18%"}, {"compound": "Cc1cccc(N2CC(C)Cn3c2nc2c3c(=O)n(CC(=O)O)c(=O)n2C)c1", "note": "(configuration not stated)", "activity change, negative = inhibition": "inactive: -4.8%"}, {"compound": "CCc1cccc(NC(=O)CCc2nc3cccnc3n2-c2ccccc2)c1", "activity change, negative = inhibition": "inactive: -15.2%"}, {"compound": "CCOc1cc(CNC(=O)c2ccc3c(c2)N(C)C(=O)C2CCCCN32)cc(OCC)c1OCC", "note": "(configuration not stated)", "activity change, negative = inhibition": "inactive: 0%"}, {"compound": "O=C(Nc1ccc(F)cc1F)c1cc2c(=O)n3ccccc3nc2s1", "activity change, negative = inhibition": "inactive: -6.36%"}, {"compound": "CCOC(=O)N1CCc2c(sc(NCc3ccc(N(C)C)cc3)c2C(=O)Nc2ccc(OC)cc2)C1", "activity change, negative = inhibition": "inactive: -29.2%"}, {"compound": "CC1CCc2c(sc(NC(=O)c3ccc(Cl)cc3Cl)c2C#N)C1", "note": "(configuration not stated)", "activity change, negative = inhibition": "inactive: -3.26%"}, {"compound": "COc1ccc(NC(=O)CCc2c(C)nc3c(c2C)c(=O)n(C)c(=O)n3C)cc1OC", "activity change, negative = inhibition": "inactive: -6.21%"}, {"compound": "O=c1c2sc3ccccc3c2n(Cc2cccc(C(F)(F)F)c2)c(=O)n1Cc1ccccc1", "activity change, negative = inhibition": "inactive: -20.9%"}, {"compound": "COc1ccc(NC(=O)CSc2nc(-c3cccs3)cc(C(F)(F)F)c2C#N)cc1", "activity change, negative = inhibition": "inactive: -4.84%"}, {"compound": "O=C(CN1C(=O)C2(CCCC2)NC[C@H]1c1cc(F)cc(F)c1)Nc1ccc2c(c1)C[C@@]1(C2)C(=O)Nc2ncccc21", "activity change, negative = inhibition": "inactive: -1.24%"}, {"compound": "CCN(CC)C(=O)CSc1nc2cc3c(cc2c(=O)n1CCCCCC(=O)NCCc1ccc(OC)c(OC)c1)OCO3", "activity change, negative = inhibition": "inactive: -18.5%"}, {"compound": "CCOc1ccc(NC(=O)c2c(NCc3sccc3C)sc3c2CCCCC3)cc1", "activity change, negative = inhibition": "inactive: -21.7%"}, {"compound": "COc1ccc(CNC(=O)c2ccc3c(c2)N(Cc2ccccc2F)C(=O)c2ccccc2S3(=O)=O)cc1", "activity change, negative = inhibition": "inactive: -11.7%"}, {"compound": "COCCNC(=O)CCc1c(C)nc2c(c(C)nn2-c2ccc(C)cc2)c1C", "activity change, negative = inhibition": "inactive: -7.53%"}, {"compound": "Cc1cc(F)ccc1NC(=O)CN(C)S(=O)(=O)c1ccc(C(=O)N2CCOCC2)s1", "activity change, negative = inhibition": "inactive: -21.9%"}, {"compound": "N#Cc1c(C(F)(F)F)cc(-c2cccs2)nc1SCC(=O)Nc1ccc(F)cc1", "activity change, negative = inhibition": "inactive: -23.5%"}, {"compound": "CCc1ccccc1NC(=O)CSC1=Nc2ccccc2C2=NC(Cc3ccccc3)C(=O)N12", "note": "(configuration not stated)", "activity change, negative = inhibition": "inactive: -29.2%"}, {"compound": "O=C(COc1ccc([N+](=O)[O-])cc1)Nc1cccc2cccnc12", "activity change, negative = inhibition": "inactive: 8.39%"}, {"compound": "COc1ccc(OCc2ccc(-c3nc(C#N)c(N4CCN(c5cccc(Cl)c5)CC4)o3)o2)cc1", "activity change, negative = inhibition": "inactive: 0.164%"}, {"compound": "O=c1[nH]c2ccccc2c(=O)n1CCCl", "activity change, negative = inhibition": "inactive: 10.4%"}, {"compound": "COc1cc(Cl)c(C)cc1NC(=O)Cn1ncc2c(=O)oc3ccccc3c21", "activity change, negative = inhibition": "inactive: -4.37%"}, {"compound": "CCC(C(=O)OC)n1cnc2c(cnn2-c2ccc(F)cc2)c1=O", "note": "(configuration not stated)", "activity change, negative = inhibition": "inactive: -10.3%"}, {"compound": "CCCC(=O)O[C@]1(C(=O)CO)CC[C@H]2[C@@H]3CCC4=CC(=O)CC[C@]4(C)[C@H]3[C@@H](O)C[C@@]21C", "activity change, negative = inhibition": "inactive: 2.78%"}, {"compound": "CCC(Sc1nc2nccnc2c(=O)n1Cc1ccc(F)cc1)C(=O)NC1CCCCC1", "note": "(configuration not stated)", "activity change, negative = inhibition": "inactive: -9.05%"}, {"compound": "CCc1cccc(NC(=O)C2CCC(CNS(=O)(=O)c3csc(C(N)=O)c3)CC2)c1", "note": "(configuration not stated)", "activity change, negative = inhibition": "inactive: -19.7%"}, {"compound": "CC(C)(C)OC(=O)N1CCC(c2c(C(=O)NCc3ccco3)cnn2-c2ccccc2)CC1", "activity change, negative = inhibition": "inactive: -10.5%"}, {"compound": "CCOc1ccc(S(=O)(=O)c2cn(Cc3ccccc3)c3ccc(OCC)cc3c2=O)cc1", "activity change, negative = inhibition": "inactive: -18.5%"}, {"compound": "Cc1cc(=O)n2nc(N3CCC(C(=O)NCc4ccccc4)CC3)sc2n1", "activity change, negative = inhibition": "inactive: -5.75%"}, {"compound": "Cc1ccc(NC(=O)Cn2cnc3nc4c(cc3c2=O)CCCC4)cc1Cl", "activity change, negative = inhibition": "inactive: -3.48%"}, {"compound": "CCn1c(=O)cc(SCC(=O)NCc2ccccc2OC)c2ccccc21", "activity change, negative = inhibition": "inactive: -18.2%"}, {"compound": "COc1ccc2cc(C(=O)NCc3ccc4c(c3)CCN4C(=O)c3ccccc3)[nH]c2c1", "activity change, negative = inhibition": "inactive: -5.37%"}, {"compound": "Cc1cccc(C(=O)NC(=O)Nc2ccc(-c3cc(C(F)(F)F)nn3-c3ccccc3)cc2)c1", "activity change, negative = inhibition": "inactive: -20.1%"}, {"compound": "COc1ccc(C(=O)Nc2ccc(OCc3cc(=O)n4ccsc4n3)cc2)cc1OC", "activity change, negative = inhibition": "inactive: 0.811%"}, {"compound": "Cc1cc(C)c2c(=O)cc(C(=O)Nc3ccc(S(=O)(=O)N(C)Cc4ccccc4)cc3)oc2c1", "activity change, negative = inhibition": "inactive: -15.5%"}]}]}
